Measured values from ChEMBL document CHEMBL4428074, “The discovery of 2,5-isomers of triazole-pyrrolopyrimidine as selective Janus kinase 2 (JAK2) inhibitors versus JAK1 and JAK3” (Bioorg Med Chem, 2016).

The compounds below were run against Tyrosine-protein kinase JAK2 (Homo sapiens, UniProt O60674).
Assay type: cell-based, Sf21

Sequence of Tyrosine-protein kinase JAK2 (O60674 whole entry): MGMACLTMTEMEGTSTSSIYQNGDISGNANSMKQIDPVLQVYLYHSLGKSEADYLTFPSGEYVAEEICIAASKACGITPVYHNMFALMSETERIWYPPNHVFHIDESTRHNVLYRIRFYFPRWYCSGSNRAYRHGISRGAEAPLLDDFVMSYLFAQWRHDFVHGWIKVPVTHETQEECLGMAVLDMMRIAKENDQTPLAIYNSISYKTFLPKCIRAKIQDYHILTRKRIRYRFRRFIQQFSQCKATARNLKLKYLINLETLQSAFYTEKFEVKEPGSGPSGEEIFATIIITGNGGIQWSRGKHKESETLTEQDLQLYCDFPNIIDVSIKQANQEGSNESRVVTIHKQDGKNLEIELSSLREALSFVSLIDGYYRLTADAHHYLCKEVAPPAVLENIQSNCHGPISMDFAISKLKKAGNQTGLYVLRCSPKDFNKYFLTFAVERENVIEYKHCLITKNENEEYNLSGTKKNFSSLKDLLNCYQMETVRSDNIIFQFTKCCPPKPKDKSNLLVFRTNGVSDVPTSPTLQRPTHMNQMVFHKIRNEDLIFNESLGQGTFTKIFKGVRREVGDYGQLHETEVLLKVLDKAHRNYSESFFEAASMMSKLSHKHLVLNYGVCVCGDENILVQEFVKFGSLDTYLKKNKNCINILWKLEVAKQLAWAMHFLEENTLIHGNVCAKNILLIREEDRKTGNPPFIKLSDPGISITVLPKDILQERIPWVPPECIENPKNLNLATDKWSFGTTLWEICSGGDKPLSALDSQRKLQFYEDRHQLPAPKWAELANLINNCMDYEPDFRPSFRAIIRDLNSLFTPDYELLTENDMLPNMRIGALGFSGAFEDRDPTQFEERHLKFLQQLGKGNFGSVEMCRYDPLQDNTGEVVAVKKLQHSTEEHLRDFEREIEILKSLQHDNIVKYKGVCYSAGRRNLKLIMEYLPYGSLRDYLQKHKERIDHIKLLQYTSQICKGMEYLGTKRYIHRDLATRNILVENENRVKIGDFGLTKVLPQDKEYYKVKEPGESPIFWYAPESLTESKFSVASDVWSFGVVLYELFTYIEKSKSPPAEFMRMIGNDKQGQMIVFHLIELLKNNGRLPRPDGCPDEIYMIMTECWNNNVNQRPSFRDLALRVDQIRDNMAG

IC50 [nM] | Structure (SMILES)
73.5 | Cc1nn(CCCC#N)nc1-c1ncnc2[nH]ccc12
511 | C=CCn1nc(C)c(-c2ncnc3[nH]ccc23)n1
165 | Cc1nn(CCCCCC#N)nc1-c1ncnc2[nH]ccc12
210 to 310 | COCCn1nc(C)c(-c2ncnc3[nH]ccc23)n1
62.7 | Cc1nn(CC2CCC2)nc1-c1ncnc2[nH]ccc12
786 | CC(C)=CCn1nc(C)c(-c2ncnc3[nH]ccc23)n1
156 | Cc1nn(CCCO)nc1-c1ncnc2[nH]ccc12
67.4 | C=C(C)Cn1nc(C)c(-c2ncnc3[nH]ccc23)n1
63.6 | Cc1nn(CCCCC#N)nc1-c1ncnc2[nH]ccc12
71.8 | Cc1nn(CC2CCCC2)nc1-c1ncnc2[nH]ccc12
96.3 | Cc1nn(CCCC(F)(F)F)nc1-c1ncnc2[nH]ccc12
41.9 | Cc1nn(CC2CC2)nc1-c1ncnc2[nH]ccc12
